Source: patent US20240392013A1, “IL1RAP ANTIBODIES AND USES THEREOF” (STELEXIS THERAPEUTICS, LLC, priority 2021, published 2024)
Numbering of substitutions follows the chain as printed. Numbers in names are those of the source.

B1: 74804_21D11A: anti-IL1RAP mAb; VH SEQ ID NO:12, VL SEQ ID NO:28, λ light chain (antibody, V domains shown)
VH: EVQVVESGGGLVKPGGSLRLSCAASGFIFSKAWMSWVRQAPGKGLEWVGRIKSKTDGGTTDYAAPVKGRFTISRDDSKNTLYLQMNSLKTEDTAVYYCTTGGYVFDYWGQGALVTVSS
VL: QSVLTQPPSASGTPGQRVTISCSGNNSNIGSYIVNWFQQLPGTAPKLLIYSKNQRPSGVPDRFSGSKSGTSASLAISGLQSEDEADYYCAAWDDSLNGVVFGGGTKLTVL
modifications: 74804_21D11A VH; 74804_21D11A VL
B2: 74804_44J14A: anti-IL1RAP mAb; VH SEQ ID NO:15, VL SEQ ID NO:31, λ light chain (antibody, V domains shown)
VH: QVQLQESGPGLVKPSETLSLTCTVSGGSVFSYFWNWIRQPPVKGLEWIGYIDHSGGTNYNPSLKSRVTMSVDTSKNQFSLKLSSVTAADTAVYYCAREGLHDAFDIWGQGTLVTVSS
VL: B1 VL with N25S, N26S, Y32N, I33T, F37Y, Q39L, K52N, N53Y, V99R
modifications: 74804_44J14A VH; 74804_44J14A VL
B3: 74804_01N02A: anti-IL1RAP mAb; VH SEQ ID NO:16, VL SEQ ID NO:18, κ light chain (antibody, V domains shown)
VH: EVQLVQSGAEVKKPGESLKISCKGSGYSFTSYWIVWVRQMPGKGLEWMGFIYPGNSDTRYSPSFQGQVTISADQSISTAYLQWSSLKASDTATYYCARGGSYYLDYWGQGTLVTVSS
VL: DIVMTQSPDSLAVSLGERATIYCKSSQSVLINSNNQNYLAWYQQKPGQPPKLLIQWASTRESGVPDRFSGSGSGTDFTLTISSLQAEDVAVYYCQQYYNSPFTFGGGTKVEIK
modifications: 74804_01N02A VH; 74804_01E23A VL and 74804_01N02A VL
B4: 74804_01E23A: anti-IL1RAP mAb; VH SEQ ID NO:1, VL SEQ ID NO:18, κ light chain (antibody, V domains shown)
VH: QVQLVQSGAEVKKPGASVKVSCKASGYTFTGYYMHWVRQAPGQGLEWMGWLNPNSGGTDYVQKFQGRVTMTRDTSISTAYMELSRLRSDDTAVYYCARTLYYYGMDVWGQGTTVTVSS
VL: B3 VL
modifications: 74804_01E23A VH; 74804_01E23A VL and 74804_01N02A VL
B5: 74804_30O16A: anti-IL1RAP mAb; VH SEQ ID NO:2, VL SEQ ID NO:19, κ light chain (antibody, V domains shown)
VH: B4 VH with K13R, L51I, N54Y, V61A, G66D, T99S, L100Y, T112I
VL: DIVMTQSPDSLAVSLGERATINCKSSQNIINSSTNKNYLAWYKQKPGQPPKLLIYWASTRESGVPDRFSGSGSGTDFTLTISSLQAEDVAVYYCQQYYSTPFTFGGGTKVEIK
modifications: 74804_30O16A VH; 74804_30O16A VL
B6: 74804_09H05A: anti-IL1RAP mAb; VH SEQ ID NO:3, VL SEQ ID NO:20, κ light chain (antibody, V domains shown)
VH: B4 VH with V5F, M34V, L51I, V61A, R72W, T99S, L100Y
VL: DIVMTQSPDSLAVSLGERATINCKSSQSVLYSSNNTSYLAWYQQKPGQPPKFLIYWTSTRESGVPDRFSGSGSGTDFTLTISSLQAEDVAVYYCQQYYITPFTFGPGTKVDIK
modifications: 74804_09H05A VH; 74804_09H05A VL
B7: STLX2012-DLE: STLX2012 with Fc substitution mutations S239D, A330L, I332E; HC SEQ ID NO: 109, LC SEQ ID NO: 110 (antibody)
heavy: QVQLLQSGAEVKKPGSSVKVSCKASGGTFSIYAIDWVRQAPGQGLEWMGGIIPIFGTANSAQKFQGRVTITADKSTSTAYMELSSLRSEDTAVYYCARNGATSDAFDMWGQGTMVTVSSASTKGPSVFPLAPSSKSTSGGTAALGCLVKDYFPEPVTVSWNSGALTSGVHTFPAVLQSSGLYSLSSVVTVPSSSLGTQTYICNVNHKPSNTKVDKKVEPKSCDKTHTCPPCPAPELLGGPDVFLFPPKPKDTLMISRTPEVTCVVVDVSHEDPEVKFNWYVDGVEVHNAKTKPREEQYNSTYRVVSVLTVLHQDWLNGKEYKCKVSNKALPLPEEKTISKAKGQPREPQVYTLPPSRDELTKNQVSLTCLVKGFYPSDIAVEWESNGQPENNYKTTPPVLDSDGSFFLYSKLTVDKSRWQQGNVFSCSVMHEALHNHYTQKSLSLSPGK
light: EIVLTQSPGTLSLSPGERATLSCRASLSVSSNYLAWFQQRPGQAPRLLIHGVSRRATGIPDRFSGSGSGTDFTLTISRLEPEDFAVYYCQQYGSSPLTFGGGTKVEIKRTVAAPSVFIFPPSDEQLKSGTASVVCLLNNFYPREAKVQWKVDNALQSGNSQESVTEQDSKDSTYSLSSTLTLSKADYEKHKVYACEVTHQGLSSPVTKSFNRGEC
modifications: STLX 2012 HC DLE; STLX 2012 LC

tested on: cyIL1RAP; assay: Kinetics of IL1RAP mAbs by Octet, cynomolgus IL1RAP; assay type: binding; settings: not given
Description: (§1) Antibodies were diluted in kinetics buffer (0.1% BSA, 0.02% Tween-20 and 0.05% NaN3 in PBS) and loaded onto 16 channel anti-mouse IgG Fc capture sensors (AMC, Cat #2001073; Sartorius, Göttingen, Germany). Human, huIL1RAP-His (Sino Biological, lot: MB08MA1301), and monkey, cyIL1RAP-His (Lake Pharma, NY, USA; lot:16205819371) proteins were titrated starting from the highest concentration of 100 nM and followed by 50 nM and 25 nM. Purified antibodies were loaded at 5 μg/ml in kinetics buffer. The experimental parameters selected to determine the kinetic constants were Baseline for 60 s, Loading of antibody to sensor for 180 s, Association of analyte to antibody for 120 s, Dissociation for 1200 s and Regeneration in 10 mM Glycine pH 1.7 for 4×30 s.
(§2) Regeneration cycle tracking was selected for 12 cycles. Binding to human and cynomolgus IL1RAP was measured and KD (M) kinetics were calculated. Also, the disassociation rate (Kdis) (1/s) and association rate (Kon) (1/Ms) kinetics were calculated (data not shown).

Molecule | cyIL1RAP kdis(1/s) | cyIL1RAP kon(1/Ms)
B1 | 0.002591 s⁻¹ | 254500 M⁻¹ s⁻¹
B2 | 0.002061 s⁻¹ | 1226000 M⁻¹ s⁻¹
B3 | 0.000413 s⁻¹ | 334300 M⁻¹ s⁻¹
B4 | 0.000863 s⁻¹ | 190100 M⁻¹ s⁻¹
B5 | 0.000369 s⁻¹ | 142700 M⁻¹ s⁻¹
B6 | 0.000408 s⁻¹ | 141800 M⁻¹ s⁻¹

tested on: IL1-induced NFκB activity; assay: HEK-BlueIL1β NFκB Reporter Assay; assay type: cell-based; settings: nM range, read-out: IC50, inhibition of IL1-induced NFκB activity
Description: The HEK-Blue IL1β (Invivogen, Cat #hkb-il1b) cell line was used to monitor NFκB activity upon stimulation with IL1β cytokine. In this cell line the secreted embryonic alkaline phosphatase reporter gene (SEAP) is inducibly expressed under the control of IFN-β minimal promoter fused to NFκB/AP-1. Specificity to IL1β cytokine was achieved by blockage of TNF-α response. The cells were maintained in the presence of hygromycin (200 μg/ml) and zeocin (100 μg/ml).
For the functional assay, cells were plated at a density of 5×10^4 cells/well in 96-well plates. Cells were treated with each antibody at the highest concentration of 200 μg/ml followed by seven serial 1:3 dilutions and incubated for 45 minutes at 37° C./5% CO2 in humified incubator. Cells were then stimulated with IL1β ([…]) and incubated overnight at 37° C./5% CO2 in humified incubator. Every treatment was conducted in triplicates. Following, supernatants from each well were mixed with Quanti-Blue substrate (Invivogen, CA USA; Cat #rep-qb1) according to manufacturer's recommendations and secreted SEAP was measured using spectrophotometer at 650 nm.

Molecule | IC50
B1 | 0.532 nM
B2 | 0.792 nM
B3 | 1.72 nM
B4 | 0.737 nM
B5 | 2.31 nM
B6 | 2 nM

tested on: IL33-induced NFκB activity; assay: HEK-BlueIL33 NFκB Reporter Assay; assay type: cell-based, human; settings: nM range, read-out: IC50, inhibition of IL33-induced NFκB activity
Text: HEK-Blue IL33 (Invivogen, Cat #hkb-hil33) cell line was used to monitor NFκB activity upon stimulation with IL33 cytokine. The secreted embryonic alkaline phosphatase reporter gene (SEAP) is inducible expressed under the control of IFN-β minimal promoter fused to NFκB/AP-1. HEK-BlueIL33 cells were also generated upon stable transfection with human IL1RL1 (ST2) gene. Specificity to IL33 cytokine was achieved by blockage of TNF-α and IL1 response. Cells are maintained in the presence of hygromycin (200 μg/ml), zeocin (100 μg/ml) and blasticidin (10 μg/ml).
For the functional assay, cells were plated at a density of 5×10^4 cells/well in 96-well plates. Cells were treated with each antibody at the highest concentration of 200 μg/ml followed by seven serial 1:3 dilutions and incubated for 45 minutes at 37° C./5% CO^2 in humified incubator. Cells were then stimulated with IL33 (12 μM) and incubated overnight at 37° C./5% CO2 in humified incubator. Every treatment was conducted in triplicates. Following, supernatants from each well were mixed with Quanti-Blue substrate (Invivogen, Cat #rep-qb1) according to manufacturer's recommendations and secreted SEAP was measured using spectrophotometer at 650 nm.

Molecule | IC50
B1 | 3.54 nM
B2 | 8.12 nM
B3 | 17 nM
B4 | 2.49 nM
B5 | 12.4 nM
B6 | 11 nM

tested on: SK-MEL-5 cells; assay: Jurkat-Lucia NFAT-CD16 ADCC reporter assay against SK-MEL-5 cells; assay type: cell-based; settings: SK-MEL-5 target cells
Text: Methods: ADCC activity is mediated through binding of NK cell's CD16 receptors to the Fc region of antibodies. A Jurkat-Lucia NFAT-CD16 ADCC Reporter cell assay (Invivogen, Cat #jktl-nfat-cd16; https://www.invivogen.com/jurkat-lucia-nfat-adcc-adcp-cells) was used to analyze IL1RAP mAb STLX2012 for ADCC activity. Briefly, the Jurkat cell line was engineered to express the cell surface Fc receptor CD16A (FcγRIIIA) and the Lucia luciferase reporter gene. ADCC is triggered by CD16A cross-linking upon antigen-bound antibody binding at the surface of immune effector cells. Cells are maintained in the presence of zeocin (100 μg/ml) and blasticidin (10 μg/ml).
The STLX2012-DLE antibody was then analyzed for ADCC activity using the Jurkat-Lucia NFAT-CD16 ADCC Reporter cell assay, described in Example 11 above.

Molecule | ADCC activity (reporter)
B7 | enhanced ADCC activity compared to original STLX2012 antibody

target: T1, hIL1RAP (Homo sapiens, UniProt Q9NPH3); assay: Kinetics of IL1RAP mAbs by Octet, human IL1RAP; assay type: binding; parameters: extracellular domain His-tagged, Cat #10121-H08H; His; purchased Sino Biological lot MB08MA1301 (catalogue number not given); settings: not given
T1 sequence (Q9NPH3 21-367 limits assumed): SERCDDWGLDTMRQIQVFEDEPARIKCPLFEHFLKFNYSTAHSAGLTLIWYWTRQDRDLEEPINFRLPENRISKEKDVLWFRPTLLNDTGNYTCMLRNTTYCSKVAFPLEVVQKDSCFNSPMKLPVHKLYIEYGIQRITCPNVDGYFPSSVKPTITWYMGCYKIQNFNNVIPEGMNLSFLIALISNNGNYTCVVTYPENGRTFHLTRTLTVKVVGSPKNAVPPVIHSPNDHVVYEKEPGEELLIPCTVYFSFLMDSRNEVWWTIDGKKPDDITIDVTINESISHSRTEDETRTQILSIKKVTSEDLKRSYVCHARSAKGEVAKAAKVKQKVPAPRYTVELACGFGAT
Description: as §1, §2

Molecule | hIL1RAP kdis(1/s) | hIL1RAP kon(1/Ms)
B1 | 0.000478 s⁻¹ | 218200 M⁻¹ s⁻¹
B2 | 0.000684 s⁻¹ | 558300 M⁻¹ s⁻¹
B3 | 0.000233 s⁻¹ | 289800 M⁻¹ s⁻¹
B4 | 0.000391 s⁻¹ | 167100 M⁻¹ s⁻¹
B5 | 0.000359 s⁻¹ | 160500 M⁻¹ s⁻¹
B6 | 0.000272 s⁻¹ | 165700 M⁻¹ s⁻¹
